The target in this assay is S-RBD/ACE2 association at the HEK293T-ACE2 cells surface (Severe acute respiratory syndrome coronavirus 2, UniProt P0DTC2). Nature of the assay: Cellular S-RBD/ACE2 interaction model, flow cytometry on HEK293T-ACE2 cells.

`C(=C\c1nc2ccccc2s1)/c1cccc(N(c2cccc(/C=C/c3nc4ccccc4s3)c2)c2cccc(/C=C/c3nc4ccccc4s3)c2)c1` [TP m 3BTZ compound, Tris {3-(2-(benzothiazole-2-yl)vinylphenyl}amine)]: the “S-RBD/ACE2 association at the surface of the cell” value is “decreased the efficiency of S-RBD/ACE2 association”.

The values above are taken from patent publication EP4173621A1 (priority 2021, dated 2023).
